# Source: PMC12136788
# The other results are listed elsewhere or left out.
# B1: chr1:193096648:193096749:-|CDS|ENSG00000023572|msi1_unk|FALSE|overlapping (ssRNA)
# RNA: GGGAGUUCUACAGUCCGACGAUCCAACAGGUUCCAAGAAUAUUUGUCAAUGGUACUUUUAUUGGAGGUGCAACUGACACUCAUAGGCUUCACAAAGAAGGAAAAUUGCUCCCACUAGUUCAUCAGUGUUAUUUAAAAAAAAGUCAACAGAGGAUUGAGCAUCA
# B2: ENSG00000136451:be:win_1901|3pUTR|ENSG00000136451|bound_else_gene|NA|bound_elsewhere_windowed (ssRNA)
# RNA: GGGAGUUCUACAGUCCGACGAUCUCCCAAGGAAUCACUUUAUUGUAAACACUAGCAGAACUCUUCUCCCUAUACAAGGUGGAUGGCUGAUUUUAACCUGAAAUUUUAAAUCCACAGAUUGAGAGCUAGUGUAGAAUUGUCUGUCAACAGAGGAUUGAGCAUCA
# B3: ENSG00000186575:stop:overlap|stop_codon|ENSG00000186575|stop_codon|NA|stop_codon (ssRNA)
# RNA: GGGAGUUCUACAGUCCGACGAUCCCAUUAAAAAGCUCACCUUGCAGAGCGCCAAGUCCCGAGUGGCCUUCUUUGAAGAGCUCUAGCAGGUGACCCAGCCACCCCAGGACCUGCCACUUCUCCUGCUACCGGGACCGCGGGAUGCAACAGAGGAUUGAGCAUCA
# B4: chrX:80717640:80717741:-|CDS|ENSG00000165288|msi1|FALSE|unique (ssRNA)
# RNA: GGGAGUUCUACAGUCCGACGAUCCUGAGAAGUCCAAACAUGGACAUAUCUUCUUCCCCAAACAUCAGGCUUCGAAGACAUAGUAGUCAAAUUGAAGGUGUUAGACAAAUGCAUAACAAUGCUCCUCGGAGCCAGAUGGCCACUCAACAGAGGAUUGAGCAUCA
# B5: chr2:171482635:171482736:+|3pUTR|ENSG00000115827|unk|FALSE|unique (ssRNA)
# RNA: GGGAGUUCUACAGUCCGACGAUCCAAGAGUGUUUCAGAAUAGGAUGUCUUAAGACUUCAGUCAUGUCAGAGAUUUUUUUUUUUAGGUGAUUAUUGAGUUUCUCCUUCUCCUUUAAGUCAUCACCUUCCUUUUAUGAAAUGAUACAACAGAGGAUUGAGCAUCA
# B6: chr3:58425360:58425463:+|3pUTR|ENSG00000168297|unk|total|mutant (ssRNA)
# RNA: GGGAGUUCUACAGUCCGACGAUCAGACAGCUCCCCGAAACAUUCCUCUUACAGUUCAUUUCUCUAAAGCAUUUUCUGAUUCUCCGAUAACUCCAAUUUUUGCUACCUUUAUCUCCGACAUUAACACUACCGCCCAAAGCACCGCAACAGAGGAUUGAGCAUCA
# B7: chr9:6012816:6012917:-|CDS|ENSG00000137040|unk|FALSE|unique (ssRNA)
# RNA: GGGAGUUCUACAGUCCGACGAUCGGGAUUGUGCAUAUUUGAUGACAUCAUAGAGCACUGCAGUCCAACUUCAUUUAAAUAUGUAGAAUAUUUUCGGUGGCCAAUGCUACUAAAUAUGCGAGAUAACAACCCUGAAGUCAGGCACAACAGAGGAUUGAGCAUCA
# B8: chr10:43184366:43184487:+|3pUTR|ENSG00000169826|unk|FALSE|bound_elsewhere (ssRNA)
# RNA: GGGAGUUCUACAGUCCGACGAUCUAGUUUAUUUGAGCCAGCUCUAUCAGGGUCUUCCCAUGGUGGUUCAGAAUAGAUGAGCAUAGCAUGGUUUUGUUUGUUUUUGCUUUCAAUUUUCUAAUUUGGCAUGGAUCCAUAUGUAUUCAACAGAGGAUUGAGCAUCA
# B9: chr12:65247554:65247656:+|3pUTR|ENSG00000174106|unk|FALSE|unique (ssRNA)
# RNA: GGGAGUUCUACAGUCCGACGAUCCAGUAUUUAAUUUGUUUCAGUAAACUUACUUUAUUACUGUUUAUGAUUUCAGAUAAAAAUAGUUGCUGAGUAAAUUUUACUUGUAAUCUACAAUUGGCUUUUUAAAAAUAACCUGUUGAUCAACAGAGGAUUGAGCAUCA
# B10: chr10:92030471:92030572:+|3pUTR|ENSG00000095564|unk|FALSE|unique (ssRNA)
# RNA: GGGAGUUCUACAGUCCGACGAUCUAUUUUUUUAUUAACUAUUUAUUUGCUAGUUCCAUAAACCAGCUCUUUAACAUAGCUUAUAGUAAUUGAUAUUUUCUUAGAAUAAGUACAGAGCAAUAUAUCAUUAAAGGGCUAUGAAGGCAACAGAGGAUUGAGCAUCA
# B11: ENSG00000124766:be:win_3351|3pUTR|ENSG00000124766|bound_else_gene|NA|bound_elsewhere_windowed (ssRNA)
# RNA: GGGAGUUCUACAGUCCGACGAUCCCACCCUCCGGCCCCCGUCUUGUAAAAAGGGGAGGAGAAUUAGCCAAACACUGUAAGCUUUUAAGAAAAACAAAGUUUUAAACGAAAUACUGCUCUGUCCAGAGGCUUUAAAACUGGUGCCAACAGAGGAUUGAGCAUCA
# B12: ENSG00000151612:stop:overlap|stop_codon|ENSG00000151612|stop_codon|NA|stop_codon (ssRNA)
# RNA: GGGAGUUCUACAGUCCGACGAUCCAGGCCUGUUGGAGAAGGAAGCCAGCAGUGAGGGGGAUUGCAAAGUAGAGAGAGGUUGGUAGAACUGUGGACUGUGAAGAGAUCGAGAAUAGCACAGUUAACUAGGCAUUUGCCUUCGGCCAACAGAGGAUUGAGCAUCA
# B13: ENSG00000198589:be:win_7151|CDS|ENSG00000198589|bound_else_gene|NA|bound_elsewhere_windowed (ssRNA)
# RNA: GGGAGUUCUACAGUCCGACGAUCCUUGGGCCAAAACCUCAGAAGAAUUUGUUCACAUAAACAGAUUGGCCCUGGAGAGUGAAUUUGUUUCCUGCCAGCUUCACCAAUGGAUUGAUCUCAUUUUUGGCUAUAAACAGCAAGGACCAACAGAGGAUUGAGCAUCA
# B14: chr8:88167829:88167930:-|CDS|ENSG00000156103|msi1|total|mutant (ssRNA)
# RNA: GGGAGUUCUACAGUCCGACGAUCCUUUGAUGUGUGGCAGAAUGUAACUCCUCUGACAUUUGAAGAAGUUCCCUACAGUGAAUCCGAAAAUGGCAAACGUGAUGUGGAUAUAACCAUUAUUUUUGCAUCUGGUUUCCAUGGGGACAACAGAGGAUUGAGCAUCA
# B15: chr1:32364632:32368550:-|three_prime_utr|ENSG00000160058|control|control|control (ssRNA)
# RNA: GGGAGUUCUACAGUCCGACGAUCGCUCAGACCCACAACAUUGGUCAUCAGCAGGCUGCACUUUUCCUCAGUUCCAGGGUGGAUAGAGGGUCAAGUUCUUGACCUUAGCUCUGUAUCAAAAUUGCCUGAGAAACUGCUUAAGAACAACAGAGGAUUGAGCAUCA
# B16: chr10:24620413:24620514:-|CDS|ENSG00000107863|msi1|total|mutant (ssRNA)
# RNA: GGGAGUUCUACAGUCCGACGAUCGUGCUAAUGAAGUAUUGUCCAAGAAGUGCAUCUCAAGGAGCACUGACGUCUCCAUCUGUCCGUUUCCGUAAUCACCGAACUCGUUCAUGGGAUUAUAUUGAGGGACAGGAUGAAACCUUACAACAGAGGAUUGAGCAUCA
# B17: chr8:38210141:38210254:+|CDS|ENSG00000156735|unk|FALSE|unique (ssRNA)
# RNA: GGGAGUUCUACAGUCCGACGAUCGCUGAGCCUCAGCUGUAUGGUAAUGCCACCAGUGACCAUCCCAACAAUCAAGAUCAAAGUAGCAGUCUUCCUGAAGAAUGUGUACCUUCAGAUGAAAGUACUCCUCCGAGUAUUAAAAAACAACAGAGGAUUGAGCAUCA
# B18: ENSG00000124766:be:win_2251|3pUTR|ENSG00000124766|bound_else_gene|NA|bound_elsewhere_windowed (ssRNA)
# RNA: GGGAGUUCUACAGUCCGACGAUCACGGUCAAACUGAAAUGGAUUUGCACGUUGGGGAGCUGGCGGCGGCGGCUGCUGGGCCUCCGCCUUCUUUUCUACGUGAAAUCAGUGAGGUGAGACUUCCCAGACCCCGGAGGCGUGGAGCAACAGAGGAUUGAGCAUCA
# B19: chr22:28629602:28629705:-|CDS|ENSG00000100154|unk|total|mutant (ssRNA)
# RNA: GGGAGUUCUACAGUCCGACGAUCAUUGUUCUGUAUAAUGAAGCCCUGGCUGUUGACCCUCAGAACUGCAUCUUAUACAGCAACCGAUCUGCAGCCUACAUGAAAAUCCAGCAGUAUGACAAGGCACUGGAUGAUGCAAUCAAACAACAGAGGAUUGAGCAUCA
# B20: chr5:154898482:154898583:-|CDS|ENSG00000082516|unk|total|mutant (ssRNA)
# RNA: GGGAGUUCUACAGUCCGACGAUCUUUGGCCAAAAAGGGGGAUGCGGCAUCACUCCGAACGGCUGCAGAGUUGGCUGCCAUCGCCGGAGAGGAUGAGUUGUCUGCUUCCCUGGCUCUCAGAUGUGCCCAAGAGCUGCUUCUGGCCAACAGAGGAUUGAGCAUCA
# B21: chr5:157162449:157163658:-|CDS|ENSG00000170613|control|control|control (ssRNA)
# RNA: GGGAGUUCUACAGUCCGACGAUCGGUCACAUCACAUGACAGAGAGGUAGAUAUCGUGGCUAAGAUGGUGGAGAAGCAAAACAUAGAGGCCAAAGUGGAGAAAGCCCAGGGUGGCCAGGAGCUGGAGAUGAUCAGUGGCACUAUCAACAGAGGAUUGAGCAUCA
# B22: chr22:27980698:27980799:-|3pUTR|ENSG00000100154|unk|FALSE|unique (ssRNA)
# RNA: GGGAGUUCUACAGUCCGACGAUCUAACCAUUAAUUUAUUUUAUAAAGAAAGGAAAUGCUGAAAGUCGUAUUAGUACUGAGUUUAGUUGGAGAAUUUAGAUAAGUAAGUAUCUUUUAGGUAAUUCUAAAAUUAAAAUCCUACCCCAACAGAGGAUUGAGCAUCA
# Biological target: T1, UNK ZnF1-6 (called full-length) (human, UniProt Q9C0B0 30-357)
# T1 sequence: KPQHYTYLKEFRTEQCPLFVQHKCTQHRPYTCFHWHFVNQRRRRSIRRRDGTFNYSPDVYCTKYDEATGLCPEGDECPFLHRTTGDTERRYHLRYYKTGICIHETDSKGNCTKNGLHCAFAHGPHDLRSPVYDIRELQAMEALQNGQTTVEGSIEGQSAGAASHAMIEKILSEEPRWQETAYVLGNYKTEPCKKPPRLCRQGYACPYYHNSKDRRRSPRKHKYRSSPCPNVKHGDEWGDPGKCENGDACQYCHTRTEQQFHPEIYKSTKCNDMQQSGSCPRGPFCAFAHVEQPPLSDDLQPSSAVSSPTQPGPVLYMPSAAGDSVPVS
# Assay: nsRBNS (natural sequence RNA bind-n-seq); RBNS binding buffer (assumed for nsRBNS): 25 mM Tris pH 7.5, 150 mM KCl, 3 mM MgCl2, 0.01% Triton X-100, 500 ug/ml BSA, 20 U/ml SUPERase-In, 4 C; UNK is unkempt and MSI1 is Musashi-1; names of the RNAs are library labels; protein concentration not given here; high values mean tight binding
row,Binder,binding signal [enrichment R]
1,B1,5.63
2,B2,0.417
3,B3,0.727
4,B4,0.592
5,B5,1.03
6,B6,0.66
7,B7,0.424
8,B8,3.79
9,B9,0.413
10,B10,34.3
11,B11,0.901
12,B12,3.25
13,B13,0.468
14,B14,0.368
15,B15,0.834
16,B16,0.335
17,B17,0.486
18,B18,0.775
19,B19,0.409
20,B20,0.652
21,B21,0.967
22,B22,3.49
